Test results: PubChem BioAssay AID588342 (National Center for Advancing Translational Sciences (NCATS), 2011)
Several values for one entry are separate records, joined by “and”; a condition that tells them apart may be missing. Equal values may be shown once. About 25,000 (6.9%) of roughly 360,000 compounds were called active. The shares of active, inactive and inconclusive entries below differ from those in the screen. Calls follow the shape of the dose curve; as a rule, active = well fitted inhibition curve with a large enough effect; inconclusive = small, poorly fitted or top-dose-only effect; inactive = flat fitted curve, though single readings scatter. Where the call is inconclusive, the potency comes from a doubtful curve fit.

Target: Luciferin 4-monooxygenase (Photinus pyralis) (UniProt P08659)
Experiment: qHTS profiling assay for firefly luciferase inhibitor/activator using purifed enzyme and Km concentrations of substrates (counterscreen for miR-21 project); also: nearly all actives have a fitted effect of over 55% in size;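 as to activity change, negative = inhibition: plate controls were vehicle for no effect and reference inhibitor for full effect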
Conditions: purified FLuc, luminescence inhibition; series mostly up to 57.5 µM; activity change, negative = inhibition: at the top concentration
Method in brief: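 Purified P. pyralis luciferase, 10 nM final, with Km-level 10 uM D-luciferin and 10 uM ATP in 50 mM Tris acetate pH 7.5, 10 mM Mg acetate, 0.01% Tween-20, 0.05% BSA; 6-point qHTS titration about 60 µM downward; luminescence read.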
Potency is read from the fitted curve at half-maximal effect; tags tell the direction and shape of the fitted curve.

Chain of UniProt P08659 (P08659 whole entry, looked up): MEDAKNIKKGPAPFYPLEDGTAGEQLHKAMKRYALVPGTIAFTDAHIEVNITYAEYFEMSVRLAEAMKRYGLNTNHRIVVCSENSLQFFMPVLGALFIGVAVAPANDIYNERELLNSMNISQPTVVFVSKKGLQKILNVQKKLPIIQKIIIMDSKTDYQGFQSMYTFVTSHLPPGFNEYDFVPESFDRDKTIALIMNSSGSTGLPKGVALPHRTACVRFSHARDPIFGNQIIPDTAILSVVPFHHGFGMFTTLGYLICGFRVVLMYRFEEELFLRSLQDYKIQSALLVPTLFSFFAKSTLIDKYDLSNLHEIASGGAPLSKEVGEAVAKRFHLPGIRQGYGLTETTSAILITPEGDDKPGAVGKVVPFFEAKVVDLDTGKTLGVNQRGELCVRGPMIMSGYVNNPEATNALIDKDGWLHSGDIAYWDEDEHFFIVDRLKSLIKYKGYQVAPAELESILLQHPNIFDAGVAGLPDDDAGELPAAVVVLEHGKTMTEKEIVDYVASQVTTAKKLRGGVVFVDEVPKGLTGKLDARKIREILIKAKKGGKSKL

Row | Structure (SMILES) | activity change, negative = inhibition | Potency
1 | CCN1CCc2c(sc(-n3cccc3)c2C(C)NC(=O)Nc2ccccc2C)C1 (centres undefined) | inactive: -1.03% | –
2 | CC(C)c1ccc(/C=C2\CC/C(=C\C=N\N(C)C)C2=O)cc1 | – | active: 2.39 µM
3 | O=C(O)c1ccc(/C=N/NC(=O)c2ccc(NS(=O)(=O)c3cccs3)cc2)cc1 | – | inconclusive: 16.9 µM [inhibitor, partial curve]
4 | Cc1ccc(C(=O)NCC(=O)OCC(=O)c2ccc(C)c([N+](=O)[O-])c2)cc1 | inactive: 1.87% | –
5 | CC(C)N(C(=O)CSc1nnc(NC(=O)c2cccs2)s1)C(C)C | – | inconclusive: 30.1 µM [inhibitor, partial curve, poor fit]
6 | CCn1nnc2cc(C(=O)Nc3cccc(C)c3C)ccc21 | inactive: -7.39% | –
7 | COc1cc(Cl)ccc1OCc1cc(C(=O)N(C)C2CCOC2)no1 (centres undefined) | – | inconclusive: 23.9 µM [inhibitor, single point]
8 | CCc1ccc(Nc2cc(C)nc3nc(C)nn23)cc1 | inactive: 0.244% | –
9 | CC(C)(C)C(=O)Nc1nc2ccc(S(C)(=O)=O)cc2s1 | – | inconclusive: 26.9 µM [inhibitor, partial curve]
10 | C(=N\Nc1ccccn1)/c1ccc(N2CCOCC2)cc1 | – | active: 6.01 µM
11 | Clc1ccccc1-c1nnc(-c2ccccc2CNc2ccccc2)o1 | – | inconclusive: 2.69 µM [inhibitor, partial curve]
12 | O=C(C1COc2ccccc2O1)N1CCN(S(=O)(=O)c2cc(F)ccc2F)CC1 (centres undefined) | inactive: 4.36% | –
13 | CCOc1ccc(C(=O)Nc2cccc3cccnc23)cc1 | – | inconclusive: 12 µM [inhibitor, partial curve]
14 | O=C(CCc1ccccc1)Nc1ccc2c(c1)OCCO2 | – | active: 6.01 µM
15 | Nc1ccc(Oc2ccc3nc(-c4ccccc4)c(-c4ccccc4)nc3c2)cc1 | inactive: -14.8% | –
16 | CC(C)n1cc(NC(=O)c2cc(-c3ccccc3)on2)cn1 | – | active: 15.1 µM
17 | Cc1cccc(NC(=O)NC(C)CCc2ccccc2)c1 (centres undefined) | – | inconclusive: 37.9 µM [inhibitor, single point]
18 | CC1CCN(C(=O)Nc2cccc(NC(=O)N3CCC(C)CC3)c2)CC1 | – | active: 15.1 µM
19 | O=C(Nc1ccc(F)c([N+](=O)[O-])c1)C(=O)c1c(O)[nH]c2ccccc12 | – | inconclusive: 21.3 µM [inhibitor, partial curve]
20 | CCN(CC)c1ccc(S(=O)(=O)N2CCOCC2)cc1NC(=O)COC(=O)/C=C/c1ccc(C)o1 | inactive: 2.09% | –
21 | COc1ccc(NCc2nc3ccccc3n2CCOc2ccc(C)cc2)cc1 | – | inconclusive: 19 µM [inhibitor, partial curve, poor fit] and inconclusive: 13.5 µM [inhibitor, partial curve]
22 | COc1ccc(C(=O)/C=C/C(=O)N(Cc2ccc3c(c2)OCO3)C(C(=O)NC2CCCCC2)c2ccncc2)c(O)c1 (centres undefined) | inactive: -2.27% | –
23 | C(=Nc1ccc(N2CCOCC2)cc1)c1c[nH]c2ccccc12 | – | inconclusive: 3.79 µM [inhibitor, partial curve, poor fit]
24 | O=S(=O)(O)c1ccc(N2N=C(c3ccccc3)CC2c2ccccc2)cc1 (centres undefined) | – | inconclusive: 26.9 µM [inhibitor, single point]
25 | O=C(COC(=O)/C=C/c1ccccc1)NCCC1=CCCCC1 | inactive: 4.65% | –

Row | Structure (SMILES) | activity change, negative = inhibition | Potency
26 | Cc1ccc(-c2cnc(NCc3ccc(C(C)C)cc3)n2C)cc1 | inactive: -8.87% | –
27 | CCCc1nn(C)c(C(=O)Nc2cccc3ccccc23)c1Cl | – | inconclusive: 23.9 µM [inhibitor, single point]
28 | COc1ccc(C(C(=O)NCc2ccccc2)N(C(=O)Cn2nnc3ccccc32)c2ccc(F)cc2)cc1 (centres undefined) | inactive: -0.77% | –
29 | N#C/C(=C\c1ccc(OCc2ccc(C(=O)O)cc2)cc1)C(=O)N1CCOCC1 | – | active: 16.9 µM
30 | COc1cc(OC)cc(-c2nc3nc(C)c(CCC(=O)Nc4ccc(C)cc4)c(C)n3n2)c1 | inactive: 0.756% | –
31 | Nc1c(C(=O)Nc2ccccc2Cl)nnn1Cc1cccc(Cl)c1 | inactive: -1.58% | –
32 | Cc1ccc(NCc2nc3ccccc3n2CCOc2ccccc2C)cc1 | – | inconclusive: 12 µM [inhibitor, partial curve]
33 | CN1CCN(c2ccc(NC(=O)c3ccc4c(c3)OCCO4)cc2Cl)CC1 | – | active: 4.78 µM
34 | O=C(N/N=C/c1ccoc1)c1ccccc1 | – | active: 26.9 µM
35 | COC(=O)c1cc(NC(=O)c2cnc(SC)nc2-c2ccccc2)cc(C(=O)OC)c1 | inactive: 0.653% | –
36 | COc1ccc(NC(=O)Nc2cccc(C)n2)c(OC)c1 | – | inconclusive: 4.78 µM [inhibitor, single point] and inconclusive: 2.13 µM [inhibitor, partial curve, poor fit]
37 | COc1ccc(CNC(=O)C2=CC(c3ccc(OC)cc3)=NS(=O)(=O)N2C)cc1 | – | inconclusive: 26.9 µM [inhibitor, single point]
38 | CCC(C)c1ccc(NC(=O)C2CC2)cc1 (centres undefined) | – | active: 15.1 µM
39 | Cc1cc2ncc(-c3cccs3)nc2cc1C | – | active: 0.338 µM
40 | C[C@]12CC[C@@H]3c4ccc(O)cc4CC[C@H]3[C@@H]1CC[C@@H]2O | – | inconclusive: 26.9 µM [inhibitor, single point]
41 | O=C(OCc1csc(Nc2ccccc2)n1)c1ccc(Cl)cc1 | – | inconclusive: 26.9 µM [inhibitor, partial curve, poor fit]
42 | CCOc1ccc(C(O)c2nccn2C)cc1 (centres undefined) | inactive: 7.13% | –
43 | COc1ccc(/C=C/c2nnc(NC(=O)C(C)(C)C)s2)cc1 | – | active: 8.49 µM
44 | CCc1ccccc1NC(=O)C(=O)c1cc(C)n(-c2ccccc2F)c1C | – | inconclusive: 16.9 µM [inhibitor, partial curve]
45 | CC(=O)c1sc(NC(=O)c2cc(=O)c3ccccc3o2)nc1C | – | active: 7.57 µM
46 | O=C(O)CCC(=O)NN1C(=O)c2ccccc2NC1c1ccc(F)cc1 (centres undefined) | inactive: 8.03% | –
47 | CCC(C(=O)OCC(=O)c1ccc(OC)cc1OC)c1ccccc1 (centres undefined) | – | inconclusive: 23.9 µM [inhibitor, partial curve, poor fit]
48 | Cc1nnc(Nc2ccc3c(c2)OCO3)c2ccccc12 | – | active: 15.1 µM
49 | CCOC(=O)c1ccc(COc2ccc(C(C)C)cc2)o1 | – | active: 15.1 µM
